Reference: patent US20260226493A1, “HERBICIDE RESISTANT PLANTS” (SYNGENTA CROP PROTECTION AG, priority 2023, published 2026)
The source gives many values for each of these; only a part stands here.

Tested on: Arabidopsis thaliana BIO3-BIO1 (BioDA) mutants
Assay: BIO3-BIO1 mutant enzyme activity in the presence of herbicide, percentage inhibition (fluorometric DAPA assay)
Type: biochemical
Description: A pet-24 plasmid containing a DNA sequence encoding each identified variant mutant of BIO3-BIO1 derived from Arabidopsis thaliana from example 5 above, as shown in Table 13 below and as shown in full in SEQ ID NOs: 15 to 155, codon-optimised for expression in E. coli, with an N-terminal 6×His-tag and thrombin cleavage site and under control of a T7 promoter, and was synthesised by Twist Bioscience, in a similar manner to SEQ ID NO:311. These plasmids were then expressed in E. coli BL21 (DE3) bioA with 50 μg/mL kanamycin and 25 μg/mL chloramphenicol selection. Overnight cultures grown at 37° C. were used to inoculate 8×500 mL AIM in shake flasks at a ratio of 1:100. Cultures were grown at 37° C., 200 rpm for 3.5 hours and then overnight at 20° C. Cells were harvested by centrifugation for 30 minutes at 10 000 g. Cells were stored at −80° C. until extraction. 30 g of cell pellet from was thawed in 120 mL of IMAC buffer A (20 mM HEPES pH7.5, 25 mM imidazole, 500 mM sodium chloride, 0.15 mM pyridoxal phosphate, 0.5 mM TCEP, 1× complete Protease Inhibitor Tablet (Roche)). The resuspension was passed through a cell disrupter at 18 000 PSI and centrifuged at 50 000 g for 25 minutes at 4° C. The His-tagged BIO3-BIO1 protein was purified from the extract supernatant on an AKTA avant chromatography system (Cytiva) using a HisTrap FF column and eluted in IMAC buffer B ((20 mM HEPES pH7.5, 500 mM imidazole, 500 mM sodium chloride, 0.15 mM pyridoxal phosphate, 0.5 mM TCEP) followed by SEC using a HiLoad 26/60 Superdex200 column in SEC buffer (25 mM HEPES pH7.5, 150 mM sodium chloride, 0.15 mM pyridoxal phosphate, 0.5 mM TCEP). Protein concentration was measured and calculated using the absorbance at 280 nm. Extracts were diluted 1 in 4 and 10 uL was analysed by SDS PAGE.
To measure BIO3-BIO1 mutant enzyme activity in the presence of herbicide, herbicides were incubated with 20 μL of enzyme mix (100 mM EPPS pH 8.6, 0.1 mM pyridoxal phosphate, 0.1 mg/mL BSA, 50 nM BIO3-BIO1 enzyme) for 10 minutes at 20° C. in a well of a 96-well half-area black plate, followed by the addition of 20 μL of substrate mix (final concentration of 100 mM EPPS pH 8.6, 0.1 mM pyridoxal phosphate, 0.1 mg/mL BSA, 100 μM spermidine, 20 μM KAPA, 100 mM NaCO3) and further incubation for 75 minutes at 20° C. The reaction was terminated by the addition of 50 μL of derivatisation mix (final concentration of 250 mM borate NaOH pH 9.4, 3.6 mM o-phthalaldehyde, 7 mM β-mercaptoethanol, 17% (v/v) ethanol, 3.6% (v/v) methanol). The fluorescent product produced by the reaction of DAPA with o-phthalaldehyde and 7 mM β-mercaptoethanol was measured at 470 nm after excitation at 410 nm. The percentage inhibition was calculated as the activity in the presence of one of three concentrations of each herbicide compound A to M (note that the compounds labelled as A to M are identified hereinabove in the relevant section of the description) as a percentage of the activity in DMSO (Table 12 and 13). The percentage activity versus WT was also calculated and is shown in Table 13 and 14 (NT indicates mutation not tested in table 13, note that these mutations are tested at different compound concentrations for compounds L, M and C, and the results are shown in table 14).

**Q.** Which results are given for `CCn1c(Cn2ccc(C(F)(F)F)n2)cc(=O)c(C(=O)O)c1-c1ccc(Cl)c(Cl)c1` [Compound L, 2-(3,4-dichlorophenyl)-1-ethyl-4-oxo-6-[[3-(trifluoromethyl)pyrazol-1-yl]methyl]pyridine-3-carboxylic acid]?
**A.** percentage inhibition (variant Q517H, 0.075 μM): 4%; percentage inhibition (variant Q517H, 0.5 μM): 51%; percentage inhibition (variant Q517I, 0.01 μM): 14%; percentage inhibition (variant Q517I, 0.075 μM): 35%; percentage inhibition (variant Q517I, 0.5 μM): 65%; percentage inhibition (variant Q517T, 0.01 μM): 9%; percentage inhibition (variant Q517T, 0.075 μM): 50%; percentage inhibition (variant Q517T, 0.5 μM): 76%; percentage inhibition (variant Q517W, 0.01 μM): 14%; percentage inhibition (variant Q517W, 0.075 μM): 32%; percentage inhibition (variant Q517W, 0.5 μM): 65%; percentage inhibition (variant Q517Y, 0.01 μM): 8%; percentage inhibition (variant Q517Y, 0.075 μM): 38%; percentage inhibition (variant Q517Y, 0.5 μM): 74%; percentage inhibition (variant R756K, 0.01 μM): 6%; percentage inhibition (variant R756K, 0.075 μM): 30%; percentage inhibition (variant R756K, 0.5 μM): 64%; percentage inhibition (variant R756S, 0.01 μM): 10%; percentage inhibition (variant R756S, 0.075 μM): 49%; percentage inhibition (variant R756S, 0.5 μM): 82%; percentage inhibition (variant R790C, 0.01 μM): 0%; percentage inhibition (variant R790C, 0.075 μM): 4%; percentage inhibition (variant R790C, 0.5 μM): 55%; percentage inhibition (variant R797Q, 0.01 μM): 5%; percentage inhibition (variant R797Q, 0.075 μM): 10%; percentage inhibition (variant R797Q, 0.5 μM): 26%; percentage inhibition (variant S390C, 0.01 μM): 1%; percentage inhibition (variant S390C, 0.075 μM): 45%; percentage inhibition (variant S390C, 0.5 μM): 82%; percentage inhibition (variant S509A, 0.01 μM): 0%; percentage inhibition (variant S509A, 0.075 μM): 0%; percentage inhibition (variant S509A, 0.5 μM): 20%; percentage inhibition (variant S509C, 0.01 μM): 12%; percentage inhibition (variant S509C, 0.075 μM): 41%; percentage inhibition (variant S509C, 0.5 μM): 62%; percentage inhibition (variant S509D, 0.01 μM): 14%; percentage inhibition (variant S509D, 0.075 μM): 14%; percentage inhibition (variant S509D, 0.5 μM): 63%; percentage inhibition (variant S509E, 0.01 μM): 0%; percentage inhibition (variant S509E, 0.075 μM): 22%; percentage inhibition (variant S509E, 0.5 μM): 41%; percentage inhibition (variant S509F, 0.01 μM): 3%; percentage inhibition (variant S509F, 0.075 μM): 0%; percentage inhibition (variant S509F, 0.5 μM): 18%; percentage inhibition (variant S509G, 0.01 μM): 30%; percentage inhibition (variant S509G, 0.075 μM): 69%; percentage inhibition (variant S509G, 0.5 μM): 84%; percentage inhibition (variant S509H, 0.01 μM): 0%; percentage inhibition (variant S509H, 0.075 μM): 4%; percentage inhibition (variant S509H, 0.5 μM): 31%; percentage inhibition (variant S509I, 0.01 μM): 3%; percentage inhibition (variant S509I, 0.075 μM): 2%; percentage inhibition (variant S509I, 0.5 μM): 22%; percentage inhibition (variant S509K, 0.01 μM): 0%; percentage inhibition (variant S509K, 0.075 μM): 26%; percentage inhibition (variant S509K, 0.5 μM): 42%; percentage inhibition (variant S509L, 0.01 μM): 0%; percentage inhibition (variant S509L, 0.075 μM): 3%; percentage inhibition (variant S509L, 0.5 μM): 31%; percentage inhibition (variant S509N, 0.01 μM): 3%; percentage inhibition (variant S509N, 0.075 μM): 5%; percentage inhibition (variant S509N, 0.5 μM): 65%; percentage inhibition (variant S509Q, 0.01 μM): 0%; percentage inhibition (variant S509Q, 0.075 μM): 11%; percentage inhibition (variant S509Q, 0.5 μM): 41%; percentage inhibition (variant S509R, 0.01 μM): 0%; percentage inhibition (variant S509R, 0.075 μM): 20%; percentage inhibition (variant S509R, 0.5 μM): 61%; percentage inhibition (variant S509T, 0.01 μM): 3%; percentage inhibition (variant S509T, 0.075 μM): 58%; percentage inhibition (variant S509T, 0.5 μM): 91%; percentage inhibition (variant S509V, 0.01 μM): 12%; percentage inhibition (variant S509V, 0.075 μM): 10%; percentage inhibition (variant S509V, 0.5 μM): 11%; percentage inhibition (variant S509W, 0.01 μM): 0%; percentage inhibition (variant S509W, 0.075 μM): 0%; percentage inhibition (variant S509W, 0.5 μM): 0%; percentage inhibition (variant S509Y, 0.01 μM): 3%; percentage inhibition (variant S509Y, 0.075 μM): 0%; percentage inhibition (variant S509Y, 0.5 μM): 19%; percentage inhibition (variant S704H, 0.01 μM): 0%; percentage inhibition (variant S704H, 0.075 μM): 0%; percentage inhibition (variant S704H, 0.5 μM): 0%; percentage inhibition (variant S704P, 0.01 μM): 0%; percentage inhibition (variant S704P, 0.075 μM): 0%; percentage inhibition (variant S704P, 0.5 μM): 42%
